Target: SARS-CoV-2 RdRp complex (nsp12/nsp7/nsp8) (Severe acute respiratory syndrome coronavirus 2, UniProt P0DTD1)
Test: Inhibition of SARS-CoV-2 RdRp complex catalyzed reaction by NS5A inhibitors
Assay type: biochemical
Conditions: 3 µM UTP, 1 µM RdRp complex, increasing inhibitor concentration

SMILES: COC[C@H]1C[C@@H](c2nc(-c3ccc4c(c3)COc3cc5c(ccc6nc([C@@H]7CC[C@H](C)N7C(=O)[C@@H](NC(=O)OC)C(C)C)[nH]c65)cc3-4)c[nH]2)N(C(=O)[C@H](NC(=O)OC)c2ccccc2)C1 [Velpatasvir]
- reduction of the U extended RNA product peak: reduce the amount of the U extended RNA product peak, though not to the same extent as Daclatasvir

Source: patent US20230172961A1 (priority 2020, published 2023)
